# Reference: PubChem BioAssay AID485344 (National Center for Advancing Translational Sciences (NCATS), 2010)
# Among all 340,000 compounds or so, about 6,900 (2%) were called active. No stated cut-off is given here; in the data, active means inhibition above about 30%; inactive means below that, where a call was filed. Only a part is listed here, and it is no random draw. Entries without a call were filed so in the source.
# Biological target: D(2) dopamine receptor (Homo sapiens) (UniProt P14416)
# Assay: HTS Assay for Allosteric Antagonists of the Human D2 Dopamine Receptor: Primary Screen for Antagonists; further: 0% is about no effect
# Conditions: HEK293 TREx D2 cells, calcium flux, dopamine EC80; at 10 µM; stronger effect = higher value
# Method in brief: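 Antagonism is scored as inhibition of an EC80 dopamine-evoked calcium signal in a force-coupled, tetracycline-inducible HEK293 T-REx D2 line, with compound present 180 s before agonist.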
# Sequence of UniProt P14416 (P14416 whole entry, looked up): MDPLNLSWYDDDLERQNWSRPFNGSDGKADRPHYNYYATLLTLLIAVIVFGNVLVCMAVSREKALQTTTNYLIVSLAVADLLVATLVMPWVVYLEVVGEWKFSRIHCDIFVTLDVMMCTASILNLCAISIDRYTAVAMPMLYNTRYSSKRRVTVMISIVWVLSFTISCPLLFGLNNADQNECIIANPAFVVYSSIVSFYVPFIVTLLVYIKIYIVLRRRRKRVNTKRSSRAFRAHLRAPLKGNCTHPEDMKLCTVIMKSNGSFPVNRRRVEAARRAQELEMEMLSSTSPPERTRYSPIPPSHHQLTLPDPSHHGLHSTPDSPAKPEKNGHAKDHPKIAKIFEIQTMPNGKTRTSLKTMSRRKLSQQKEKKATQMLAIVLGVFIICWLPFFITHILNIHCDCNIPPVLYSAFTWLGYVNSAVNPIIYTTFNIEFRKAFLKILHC
row,Structure (SMILES),inhibition
1,CCN(C(=O)C1CCC(CNS(=O)(=O)c2cccc3nsnc23)CC1)c1ccc(C)c(C)c1 (stereo not drawn),18.1%
2,O=C(NCCc1ccccc1)c1nc2nc(-c3cccs3)cc(C(F)(F)F)n2n1,active: 40.4%
3,CCOC(=O)C1CCN(c2nc3c(S(=O)(=O)c4ccccc4)nnn3c3ccsc23)CC1,-2.81%
4,Cc1ccccc1C(=O)Nc1ccc(OCc2cc(=O)n3cccc(C)c3n2)cc1,7.02%
5,COc1ccc(NC(=O)Nc2nnc(C)s2)cc1,-6.46%
6,CC1=C(c2ccc(C)c(C)c2)S(=O)(=O)N=C1N1CCC(C(=O)N2CCC(C(N)=O)CC2)CC1,-4.88%
7,O=C1COc2cc(S(=O)(=O)NCc3ccco3)c(Cl)cc2N1,-6.47%
8,O=C(CCC(=O)N1CCOc2ccc(Cl)cc21)NCCCN1CCN(c2ccccc2F)CC1,active: 85.8%
9,COc1ccc(C2c3c(n(C)c4ccccc34)C(=O)N2CC(=O)Nc2ccc(C)c(Cl)c2)cc1 (stereo not drawn),11.3%
10,CC(CCc1ccccc1)NCc1cccc2ccccc12 (stereo not drawn),active: 32.4%
11,CCc1ccccc1N(C(=O)c1snc(C(N)=O)c1N)C(C(=O)NCC1CCCO1)c1ccc(C)o1 (stereo not drawn),active: 32.6%
12,Cc1ccc(-c2nc(SCCOc3ccccc3C)n3[nH]c(=O)cc3n2)cc1,-17.9%
13,Cc1ccc(NC(=O)Cn2cc(S(=O)(=O)c3ccc(C)cc3)c(=O)c3cc4c(cc32)OCO4)cc1,16.1%
14,CC(C)OCCCNC(=O)c1ccc2c(c1)NC(=O)c1ccccc1S2,-8.56%
15,COC(=O)c1ccccc1NC(=O)CSc1nc2ccccc2nc1Cc1ccccc1OC,-27.6%
16,Cc1ccc(CSc2cn(CC(=O)N3CCCC3)c3ccccc23)cc1,-1.84%
17,CCn1c(=O)sc2cc(NS(=O)(=O)c3ccc(F)c(C)c3)ccc21,-7.72%
18,O=C(CCS(=O)(=O)c1cc(Br)cc2c1N(C(=O)C1CC1)CC2)NCc1ccc(Cl)cc1,17.7%
19,O=C(Nc1cc(-c2nc3ccccc3o2)ccc1Cl)c1ccc(N2CCCCC2)c([N+](=O)[O-])c1,11.2%
20,O=S(=O)(Nc1nc2n(n1)C(c1ccc(F)cc1)C=C(c1ccccc1)N2)c1ccccc1 (stereo not drawn),-5.18%
21,Cc1ccc2ncc(C(=O)Nc3ccc(F)cc3F)c(=O)n2c1,12.3%
22,CC(=O)c1ccc(N2CCN(c3ccc(NC(=O)c4ccc(F)cc4)cc3C(=O)O)CC2)cc1,-11.1%
23,Cc1cc(C)c2c(=O)cc(C(=O)Nc3ccccc3C(F)(F)F)oc2c1,-2.34%
24,CCc1ccc(CNC(=O)c2ccc(NC(=O)N3CC(C)Sc4ccccc43)cc2)cc1 (stereo not drawn),22.5%

row,Structure (SMILES),inhibition
1,Cc1cccc(CSc2nnc([C@@H]3CCCN3C(=O)OC(C)(C)C)o2)c1,active: 35.6%
2,CC(C)(C)c1ccc(C(=O)NCC(c2cccs2)S(=O)(=O)c2ccccc2)cc1 (stereo not drawn),2.14%
3,Cc1cc(NC(=O)CCS(=O)(=O)c2cc3c4c(c2)CCN4C(=O)CC3)ccc1Br,8.41%
4,COc1ccc(NC(=O)C(C)n2nc(-c3ccc(C)c(C)c3)ccc2=O)cc1OC (stereo not drawn),5.56%
5,CCOC(=O)c1c(C)[nH]c(C)c1S(=O)(=O)N1CCC(C(=O)N2CCN(c3ccccc3F)CC2)CC1,-8.67%
6,COc1cccc(NC(=O)CSC2=Nc3ccccc3C3=NC(CC(=O)NC4CCCCC4)C(=O)N23)c1 (stereo not drawn),-13.8%
7,Cc1ccc(-n2c(SCc3cccc(F)c3)nc3[nH]ncc3c2=O)cc1C,-25%
8,COc1ccc(C2CC(=O)c3cc(-c4nc(-c5ccc(Cl)cc5)c(C)s4)c(=O)[nH]c3C2)cc1 (stereo not drawn),4.69%
9,COc1cc(OC)c(OC)cc1/C=C/c1nc2cc3ccccc3cc2c(=O)n1-c1ccc(F)cc1F,-28.2%
10,Cc1ccc2c(c1)-c1cc(C)nn1C(c1cc(Br)ccc1O)N2 (stereo not drawn),12.2%
11,O=C(Cc1ccccc1)N(Cc1cccnc1)c1nc2c(F)cc(F)cc2s1,10.2%
12,COc1ccc(-c2cc(C)no2)cc1S(=O)(=O)N1CCOc2ccccc21,-2.8%
13,Cc1cccc(N2CCN(C(=O)CCc3nnc4n(CC(C)C)c(=O)c5ccccc5n34)CC2)c1C,-10.9%
14,COc1ccc(-c2cn3c(n2)sc2cc(C(=O)Nc4ccc(C)c(C)c4)ccc23)cc1,-9.43%
15,CCOC(=O)c1c(C)oc2ccc(N(C(=O)Oc3ccccc3)S(=O)(=O)c3ccc(CC)cc3)cc12,11.4%
16,CCc1ccccc1NC(=O)CN(Cc1ccccc1)S(=O)(=O)c1ccc(Br)cc1,8.89%
17,Cc1cccc(OC(=O)CSc2nnc(CNC(=O)c3ccccc3)o2)c1C,6.68%
18,O=C(Nc1ccc(F)cc1)c1oc2ccccc2c1NC(=O)C12CC3CC(CC(C3)C1)C2,-2.02%
19,COc1ccc(CCNC(=O)c2ccc3c(c2)N(Cc2c(F)cccc2Cl)C(=O)CS3)cc1OC,-16.7%
20,O=C(Nc1cc(Cl)cc(Cl)c1)c1ccc(F)c(S(=O)(=O)N2CCc3ccccc32)c1,27.9%
21,Cc1nn2c(-c3cccc(NC(=O)c4ccccc4)c3)nnc2c2ccccc12,0.158%
22,COc1ccc(CNC(=O)c2ccc(N3CCCC3)c(NC(=O)NCc3ccc(C)cc3)c2)cc1,13.4%
23,Cc1c(NC(=S)NC(=O)CCc2ccccc2)c(=O)n(-c2ccccc2)n1C,active: 40.2%
24,CCc1cccc(NC(=O)Nc2csc3c2CCCC3)c1,-4.92%
